# Hit rate of the full screen: of about 310,000 compounds, about 2,200 (0.71%) showed an effect of 50% or more. Effects have a minus sign here. This is one part of the list.
# Molecular target: human ether-à-go-go-related gene (hERG) potassium channel (human, UniProt Q12809)
# Assay: primary screen, population patch clamp on CHO cells stably expressing hERG
# Sequence of human ether-à-go-go-related gene (hERG) potassium channel (Q12809 whole entry, looked up): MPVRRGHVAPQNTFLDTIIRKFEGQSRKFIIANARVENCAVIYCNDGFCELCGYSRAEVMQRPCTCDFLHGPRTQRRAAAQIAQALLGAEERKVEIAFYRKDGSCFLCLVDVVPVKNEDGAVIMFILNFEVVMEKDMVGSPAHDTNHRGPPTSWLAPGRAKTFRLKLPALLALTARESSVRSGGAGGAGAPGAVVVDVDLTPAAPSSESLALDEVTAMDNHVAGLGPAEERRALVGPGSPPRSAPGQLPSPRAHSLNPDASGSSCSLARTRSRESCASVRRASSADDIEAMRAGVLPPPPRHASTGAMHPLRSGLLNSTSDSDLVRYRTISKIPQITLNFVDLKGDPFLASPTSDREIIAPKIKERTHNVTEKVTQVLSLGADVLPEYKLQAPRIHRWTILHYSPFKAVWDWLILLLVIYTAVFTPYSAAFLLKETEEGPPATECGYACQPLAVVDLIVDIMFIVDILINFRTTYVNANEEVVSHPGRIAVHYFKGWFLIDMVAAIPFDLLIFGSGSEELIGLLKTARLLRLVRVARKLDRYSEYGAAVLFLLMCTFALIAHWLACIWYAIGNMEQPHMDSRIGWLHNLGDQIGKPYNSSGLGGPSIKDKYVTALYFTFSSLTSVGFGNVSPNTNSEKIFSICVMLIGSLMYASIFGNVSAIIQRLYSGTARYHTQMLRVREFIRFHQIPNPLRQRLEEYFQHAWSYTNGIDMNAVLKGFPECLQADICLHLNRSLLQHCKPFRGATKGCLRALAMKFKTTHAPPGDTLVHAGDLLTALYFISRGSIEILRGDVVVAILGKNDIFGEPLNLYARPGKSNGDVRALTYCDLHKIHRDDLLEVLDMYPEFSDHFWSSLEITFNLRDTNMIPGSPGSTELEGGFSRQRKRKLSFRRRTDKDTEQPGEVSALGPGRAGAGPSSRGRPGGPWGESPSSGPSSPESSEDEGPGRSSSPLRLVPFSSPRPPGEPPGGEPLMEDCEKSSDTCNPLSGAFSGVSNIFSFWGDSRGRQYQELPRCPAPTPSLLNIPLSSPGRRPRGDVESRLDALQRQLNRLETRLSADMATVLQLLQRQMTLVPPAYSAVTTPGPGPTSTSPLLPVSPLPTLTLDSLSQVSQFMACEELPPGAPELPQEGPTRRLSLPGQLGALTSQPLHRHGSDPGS
row,SMILES,"hERG current change (%, negative = inhibition) at 1uM"
1,CCOc1ccc(S(=O)(=O)N(CC)CC(=O)NCc2cccnc2)cc1,-23.7%
2,O=CNCC(=O)NC1CCCCCC1,17.8%
3,O=C(NCc1ccc(-c2csnn2)cc1)c1cc(Cl)cc(Cl)c1,6.88%
4,CCn1nc(C)c(CNC(=O)c2cc(COc3ccccc3SC)on2)c1C,16.6%
5,COc1cc2cc(Oc3ccc4ccc(=O)oc4c3)c(=O)oc2cc1O,14.7%
6,CN(C(=O)COc1ccc(Oc2ccccc2)cc1)C1CCS(=O)(=O)C1 (stereo not drawn),12.3%
7,CC1CCCCC12NC(=O)N(CC(=O)c1ccc[nH]1)C2=O (stereo not drawn),7.93%
8,Cn1cnnc1SC1CCCCC1NS(=O)(=O)c1ccccc1 (stereo not drawn),5.61%
9,O=C(Nc1ccc(-c2csc(Nc3cccc(C(F)(F)F)c3)n2)cc1)c1cccc(C(F)(F)F)c1,17%
10,COc1ccccc1CNC(=O)Cn1nc(C(F)(F)F)cc1C,9.27%
11,Brc1cccc(CNc2nc3ccccc3n2CCN2CCCCC2)c1,-0.507%
12,CC(Oc1ccc2cc(-c3ccccc3)c(=O)oc2c1)C(=O)NCC1CCC(C(=O)O)CC1 (stereo not drawn),14.2%
13,COC(=O)c1sccc1NC(=O)Nc1ccccc1C,8.72%
14,COCn1c(-c2ccccc2)nc2ccccc21,4.18%
15,CC(C)=C(NC(=O)c1ccccc1)C(=O)Nc1cccc(C(=O)O)c1,15.5%
16,Cc1nc(N)sc1-c1csc(Nc2cccc(O)c2)n1,5.63%
17,CCc1nnc(NC(=O)C2CC(=O)N(Cc3ccccc3)C2)s1 (stereo not drawn),4.87%
18,CCOC(=O)/C(C#N)=C/c1cn(CCOc2ccc(OC)cc2)c2ccccc12,3.46%
19,O=C(CSc1nc2ccccc2[nH]1)Nc1ccc2[nH]c(=O)[nH]c2c1,8.14%
20,CC(=O)N1CCN(c2nc(N)c(C#N)c(CC#N)c2C#N)CC1,1.33%
21,COC(=O)C1=C(C)N(C)C(=O)NC1c1cccc2ccccc12 (stereo not drawn),16.1%
22,O=C(O)Cc1cc(C(=O)Nc2ccc(Br)cc2)sc1-c1ccccc1,11.8%

row,SMILES,"hERG current change (%, negative = inhibition) at 1uM"
1,Cn1c(C(=O)NCCCN2CCN(c3ccccc3F)CC2)cc2c(=O)[nH]c3ccccc3c21,0.27%
2,COc1ccccc1NC(=O)CC(c1ccc(OC(C)C)cc1)c1ccccc1OC (stereo not drawn),2.65%
3,C=CCNC(=O)C1CC(=O)N(c2ccc(OCC(=O)NCc3ccccc3)cc2)C1 (stereo not drawn),0.925%
4,COc1ccc(NC(=O)c2ccc(NCCN3C(=O)CCC3=O)c([N+](=O)[O-])c2)cc1,10%
5,Cc1cccc(NC(=S)NCC23C=CC(O2)C2C(=O)N(c4ccc(Cl)cc4)C(=O)C23)c1 (stereo not drawn),13.7%
6,CCn1cc([N+](=O)[O-])c(C(=O)N2N=C(c3ccc(O)c(OC)c3)CC2c2ccccc2O)n1 (stereo not drawn),18.1%
7,Cc1cc([N+](=O)[O-])ccc1-c1ccc(C2Nc3ccccc3C(=O)N2O)o1 (stereo not drawn),1.56%
8,Cc1ccccc1CN1CCN(Cc2ccc3cccc(F)c3n2)CC1CCO (stereo not drawn),-0.311%
9,COC(=O)c1ccccc1OC(=O)c1cc[n+]([O-])cc1,13.1%
10,Cc1nc(SCC(=O)NC2CCCC2)[nH]c(=O)c1Cc1ccccc1,10.5%
11,Cn1nc(C(=O)NCCc2ccc(S(N)(=O)=O)cc2)c2ccccc2c1=O,3.53%
12,Cc1ccc(NC(=O)CSc2nnc(Cc3cccn3C)n2-c2ccc(F)cc2)cc1,9.87%
13,COc1ccc(-c2csc(NC(=O)c3cc(C)on3)c2C#N)cc1OC,-1.78%
14,CCN(CC)C(=O)c1ccc(NC(=O)COc2ccc([N+](=O)[O-])cc2Cl)cc1,-5.1%
15,CC(=O)N(Cc1ccccc1)c1ccccc1C(=O)O,15.7%
16,CCN(CC)c1cccc(OC(=O)c2cccnc2Cl)c1,14.9%
17,O=C1NC2(CCCCC2)C(=O)N1CCS(=O)(=O)Oc1ccc(Br)cc1,3.14%
18,O=C(Nc1nnc(CCS(=O)(=O)c2ccc3ccccc3c2)s1)c1ccc([N+](=O)[O-])cc1,15.4%
19,O=C1CN(C(=O)CN2CCCC2)C(c2ccccc2)c2cc(Br)ccc2N1 (stereo not drawn),-21.5%
20,CC(=O)OCCNC(=O)Cn1cnc2c1c(=O)n(C)c(=O)n2C,4.86%
21,O=C(CCCCCNC(=O)c1ccccc1)N/N=C/c1ccccc1,6.67%
22,COc1ccccc1NC(=O)c1ccc(NC(=O)CSc2ncccn2)cc1,1.84%

row,SMILES,"hERG current change (%, negative = inhibition) at 1uM"
1,Cc1ccc2nc(-c3ccc(SCC(=O)N4CCc5ccccc54)nc3)[nH]c2c1,7.85%
2,CCCc1nnc(NC(=O)C2CCN(C(=O)c3ccco3)CC2)s1,6.18%
3,COc1ccc(CCNC(=O)C2CCN(S(=O)(=O)c3ccc(Cl)cc3)CC2)cc1OC,1.6%
4,O=C(NC1CC2CCCC(C1)N2S(=O)(=O)c1ccccc1)C1CCCCC1 (stereo not drawn),0.641%
5,C=CCNC(=S)/N=c1/ccccn1Cc1ccccc1,13.8%
6,CCn1c(C)cc(/C=C2/NC(=O)N(Cc3ccccc3F)C2=O)c1C,12.1%
7,Cn1c(=O)cc(OCC(=O)N2CCN(c3cccc(C(F)(F)F)c3)CC2)c2ccccc21,6.38%
8,COc1ccc(CN(CC(=O)NCCc2ccccc2)C(=O)CCC(=O)Nc2cc(C)ccn2)cc1,-2.12%
9,Cc1ccc(SCC(=O)n2nc(C)cc2C)cc1,13.6%
10,C[C@H]1CN(Cc2ccccc2)C(=O)[C@@H]1CC(=O)NCc1ccccc1,8.69%
11,COc1ccc(OC)c(NS(=O)(=O)c2ccc(Br)s2)c1,12.4%
12,O=C(NNC(=O)C(O)c1ccccc1)NC1CCCCC1 (stereo not drawn),17.8%
13,Cc1ccsc1/C=N/Nc1nc(Cl)c(Cl)cc1Cl,8.9%
14,COCCN(C(=S)Nc1ccccc1C)C(C)c1cccs1 (stereo not drawn),2.07%
15,COc1cccc(CNS(=O)(=O)c2ccc(-n3cnnn3)c(C)c2)c1,3.48%
16,COc1ccc(-n2c(=O)[nH]cc(C(=O)N3CCCc4ccccc43)c2=O)cc1,5.42%
17,O=C(Nc1ccccc1)c1ccc(=O)[nH]n1,12.2%
18,COc1cccc(NC(=O)CCC2CCN(C(=O)c3cccc(NC(C)=O)c3)CC2)c1,1.88%
19,Cc1c(Cl)cccc1NC(=O)Nc1ccc(C(=O)N2CCCC2)cc1,1.01%
20,COc1cccc(CC(=O)OCC(=O)NC(=O)c2ccc(OC(F)F)cc2)c1,7.13%
21,CCOC(=O)c1ccc(NC(=O)c2ccc(NS(C)(=O)=O)cc2)cc1,1.06%
22,COc1ccc(NC(=O)CN(C)C(=O)Cc2ccc(-c3ccccc3)cc2)cc1,7.26%

row,SMILES,"hERG current change (%, negative = inhibition) at 1uM"
1,Cc1cccc(C)c1OCC(O)Cn1c2ccccc2c2ccccc21 (stereo not drawn),-1.28%
2,C=CCOC(=O)C1=C(C)NC(=O)NC1c1ccc(OC(=O)c2ccco2)c(OC)c1 (stereo not drawn),7.21%
3,COc1cc(OC)c(OC)cc1/C=C1\CC(C)C/C(=C\c2cc(OC)c(OC)cc2OC)C1=O (stereo not drawn),8.41%
4,CC(C)CN(C(=O)CN(C)C(=O)Cc1ccccc1Cl)c1c(N)n(CC(C)C)c(=O)[nH]c1=O,12.6%
5,COc1ccccc1NC(=O)c1cnc(SC)nc1,20.8%
6,COC(=O)N/N=C\c1c(C)nn(-c2ccccc2)c1Cl,2.26%
7,Cc1ccc2nc(SCC(=O)NCc3ccco3)nc(=O)n2c1,11.3%
8,CNC(=S)N1N=C(c2ccccc2)CC1c1ccccc1Cl (stereo not drawn),-0.326%
9,CCOC(=O)/C=C/c1ccc2c(c1)S(=O)(=O)N(c1cccc(OC)c1)[C@H]2CC(=O)OCC,4.72%
10,COc1cccc(CNC(=O)COc2cc3c(c4oc(=O)cc(C)c24)CCC(C)(C)O3)c1,7.83%
11,C(=N\c1nc2ccccc2n1Cc1ccccc1)/c1cccs1,9.2%
12,O=C(NCc1ccco1)c1sc(=S)n2c1[nH]c(=O)c1ccccc12,-4.07%
13,COC(=O)C1=C(C)Nc2[nH]c(=S)[nH]c(=O)c2C1c1ccc(O)cc1 (stereo not drawn),12.5%
14,O=C(O)C1=C[C@@H](c2ccc(Br)cc2)C[C@@H](OCc2ccc(CO)cc2)O1,8.37%
15,COCCn1c(C)cc(C(=O)CSc2nc3ccccc3s2)c1C,6.88%
16,Cc1ccc(NC2CCCN(C(=O)CCCN3CCCCC3=O)C2)cc1C (stereo not drawn),13.1%
17,CC(C)CN(C(=O)c1ccc(S(=O)(=O)N2CCOCC2)cc1)C1CCS(=O)(=O)C1 (stereo not drawn),10.8%
18,Fc1ccc(NC(=S)N2CCOCC2)cc1Cl,16.5%
19,CC(C(=O)N(C)C)N(C#N)c1nc(N(C)C)nc(N(C)C)n1 (stereo not drawn),0.182%
20,Cc1cc(NC(=O)CSc2nc3ccccc3c(=O)n2CCCC(=O)NCc2ccccc2)n[nH]1,-0.078%
21,COc1cc(/C=C(\C#N)C(=O)Nc2cccc(C(=O)O)c2)ccc1OCc1ccc(F)cc1,9.03%

# From publication PMC4336329 (PLoS ONE, 2015)
